# From patent US11185553B2, “Pharmaceutical composition for preventing or treating ischemic-reperfusion injury comprising bile acids” (priority 2016, dated 2021)
# Test system: human umbilical vein endothelial cells (HUVECs)
# Test: In vitro cell proliferation (cell counting method and CCK-8 staining)
# Format: cell-based
# Settings: 1 μM, 24 hours
smiles,measurement,setting,value
C[C@H](CCC(=O)O)[C@H]1CC[C@H]2[C@@H]3[C@H](O)C[C@@H]4C[C@H](O)CC[C@]4(C)[C@H]3C[C@H](O)[C@]12C [cholic acid],cell proliferation effect (CCK-8 assay),FIG. 4B,significant a cell proliferation effect
same,"cell proliferation effect (cell counting, proliferation assay)","vs control group, FIG. 4A",more significant cell proliferation effects than the control group
